Tested on: H4 #9.25 cells
Settings: day 7-10 after stimulation with anti-CD3 OKT3 antibody

## Asp-Ala diketopiperazine [DA-DKP]
  TNFα secretion from H4 #9.25 cells (FIG. 5): inhibited

From patent US11369598B2, “Treatment of T-cell mediated diseases” (Ampio Pharmaceuticals, Inc., priority 2003, dated 2022)
